Data as given in PubChem BioAssay AID2546 (National Center for Advancing Translational Sciences (NCATS), 2010).
Several values for one entry are separate records, joined by “and”; a condition that tells them apart may be missing. Identical values can stand only once. Among all 310,000 compounds or so, about 11,000 (3.5%) were called active. The shares of active, inactive and inconclusive entries below differ from those in the screen. The call rests on the fitted dose curve; in most records, active means well fitted inhibition curve with a large enough effect; inconclusive means small, poorly fitted or top-dose-only effect, or effect the other way; inactive means flat fitted curve, though single readings scatter. Potencies of inconclusive entries are left out as doubtful fits.
Potency means the concentration at half of the fitted maximal effect; tags describe the fitted curve by direction and shape.

Experiment: VP16 counterscreen qHTS for inhibitors of ROR gamma transcriptional activity;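 further: Gal4-VP16 expression switched on by copper sulfate through the metallothionein promoter; nearly all actives have a fitted effect of over 50% in size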
Details: Drosophila S2 Gal4-VP16 UAS-luciferase, luminescence, 20 h; series mostly up to 53.6 µM
With `Cc1cccc(Nc2ncc3c(n2)CC(c2ccco2)CC3=O)c1` (stereo unspecified) the Potency was inconclusive [inhibitor, single point]. In the case of `CCOc1ccc2nc(NCCNC(=O)Nc3cccc(C)c3)c(C#N)cc2c1`, the Potency is reported as inconclusive [inhibitor, partial curve]. With `CC(=O)OC1CC(OC(C)=O)[C@]2(C)C(CC(O)[C@]3(C)C2CC[C@@]2(C)C(c4ccoc4)OC(=O)C4O[C@]432)C1(C)C` (stereo partly specified) the Potency was “inactive”. With `O=c1oc2ccccc2cc1-c1nnc(NCc2ccco2)s1` the Potency was inconclusive [inhibitor, full curve, poor fit]. In the case of `CCOC(=O)c1n[nH]n2c1nc(=S)c1ccccc12`, the Potency is reported as inconclusive [inhibitor, single point]. For `Cc1ccc(-n2nnnc2SCC(=O)Nc2nc(-c3ccc(F)cc3)cs2)cc1C`, the Potency was inconclusive [inhibitor, full curve]. For `N#C/C(=C\c1cccnc1)c1nc2ccccc2[nH]1`, the Potency was “inactive”. In the case of `CC1=CCCC(C)(C)C1/C=C/C(C)=N/NC(=O)c1ccncc1` (stereo unspecified), the Potency is reported as inconclusive [inhibitor, single point]. With `C=C(C)CCC(C)N1CCC(n2nccc2NC(=O)CCCc2ccccc2)CC1` (stereo unspecified) the Potency was “inactive”. In the case of `O=S(=O)(c1ccccc1)N1CCN(C(=S)Nc2ccccc2Cl)CC1`, the Potency is reported as inconclusive [inhibitor, full curve, poor fit]. In the case of `O=S(=O)(Nc1nc2ccccc2nc1Cl)c1ccc2ccccc2c1`, the Potency is reported as “inactive”. For `Cc1cc(O)c(C)c2c1CC[C@H]1[C@H](C)C(=O)O[C@H]21`, the Potency was “inactive”. For `O=C(Nc1nc2c(s1)CCCC2)c1cc(-c2ccncc2)nc2ccccc12`, the Potency was inconclusive [inhibitor, single point]. With `CC(C)C(=O)N1CCC2(CC1)Oc1ccc(F)cc1C(=O)C21CC(c2ccc(Cl)cc2)=NO1` (stereo unspecified) the Potency was “inactive”. For `COc1cc2c(cc1OC)CN(c1ncccc1[N+](=O)[O-])CC2`, the Potency was inconclusive [activator, full curve]. In the case of `COc1ccc(OC)c(S(=O)(=O)Nc2ccc3c(c2)n(C)c(=O)n3C)c1`, the Potency is reported as inconclusive [inhibitor, single point]. With `O=C(COC(=O)c1cc(C(F)(F)F)cc(C(F)(F)F)c1)NCc1ccc(Cl)cc1` the Potency was “inactive”. With `Cc1cccnc1CCNC(=O)C1CCC(=O)N(Cc2cccc(F)c2)C1` (stereo unspecified) the Potency was “inactive”. For `COc1cc(C(c2c(C)[nH][nH]c2=O)c2c(C)[nH][nH]c2=O)ccc1OCc1ccc([N+](=O)[O-])cc1`, the Potency was inconclusive [inhibitor, single point]. For `COc1cc(C(=O)N2CCN=C2c2ccccc2)cc(OC)c1OC`, the Potency was “inactive”. In the case of `Cc1ccc(C(=O)Nc2nc3ccc(S(C)(=O)=O)cc3s2)o1`, the Potency is reported as inconclusive [inhibitor, single point]. With `O=C1C(SCCO)=C(SCCO)C(=O)c2ccccc21` the Potency was active: 2.82 µM and active: 794 nM. In the case of `CC(C)(C)c1ccc(-c2nc(C#N)c(NCc3ccncc3)o2)cc1`, the Potency is reported as inconclusive [inhibitor, single point]. With `COc1cc(CC(=O)Nc2ccc3nc(C)sc3c2)cc(OC)c1OC` the Potency was inconclusive [activator, single point]. In the case of `O=C(O)c1ccc(/C=N/NC(=O)c2cc3c(ccc4ccccc43)o2)cc1`, the Potency is reported as “inactive”. With `Cc1ccc(S(=O)(=O)NNC(=S)NC(C)(C)C)cc1` the Potency was inconclusive [inhibitor, single point]. In the case of `Nc1ccc2nc(-c3cccs3)[nH]c2c1`, the Potency is reported as “inactive”. For `Cc1c(Cl)ccc2c(C(=O)NC(C)c3ccncc3)cc(-c3ccncc3)nc12` (stereo unspecified), the Potency was active: 12.6 µM. With `O=C1CC(c2cccc([N+](=O)[O-])c2)c2cc3c(cc2N1)CCC3` (stereo unspecified) the Potency was inconclusive [inhibitor, single point]. In the case of `COc1ccc(NC(=S)N(CCC(C)C)C(C)c2ccncc2)cc1` (stereo unspecified), the Potency is reported as inconclusive [inhibitor, single point]. For `COC(=O)C(C)Oc1ccc(Cc2ncc(C(F)(F)F)cc2Cl)cc1` (stereo unspecified), the Potency was “inactive”. For `O=C(CCN1C(=O)/C(=C/c2ccc(F)cc2)SC1=S)Nc1cc([N+](=O)[O-])ccc1O`, the Potency was inconclusive [inhibitor, single point]. With `Cc1cc(C)c2nc(-c3ccccn3)cc(C(=O)N3CCCC3)c2c1` the Potency was “inactive”. With `O=c1cccccc1NCc1ccccc1` the Potency was inconclusive [inhibitor, single point]. In the case of `CCN(CC(=O)Nc1cccc(S(N)(=O)=O)c1)Cc1nc2ccccc2c(=O)[nH]1`, the Potency is reported as active: 7.94 µM. With `COc1ccccc1Cn1c(=S)[nH]c2ccc(Br)cc2c1=O` the Potency was active: 5.62 µM. With `C#CCn1c(=NC(=O)c2sc3ccccc3c2Cl)sc2cc(S(N)(=O)=O)ccc21` the Potency was inconclusive [inhibitor, partial curve, poor fit]. With `CCOC(=O)c1nn(-c2ccc(Cl)cc2)c2nnc(Cc3ccc(C)cc3)c(=O)n12` the Potency was active: 22.4 µM. With `CSc1ccccc1-n1nnnc1SCc1ccccc1` the Potency was inconclusive [inhibitor, single point]. For `COc1ccc(Cn2cnc3c(N)c(C)c(C)cc32)cc1`, the Potency was “inactive”. For `COc1ccc(CNC(=O)C(c2ccc(O)cc2)N(Cc2ccco2)C(=O)c2snc(C(N)=O)c2N)cc1` (stereo unspecified), the Potency was inconclusive [inhibitor, single point]. In the case of `COc1ccc([N+](=O)[O-])cc1NC(=O)C(C)N(C)Cc1cccc(OC)c1OC` (stereo unspecified), the Potency is reported as inconclusive [inhibitor, single point]. In the case of `CCc1ccccc1NC(=S)NCC1CCN(c2ccc(OC)cc2)C1` (stereo unspecified), the Potency is reported as active: 10 µM. For `CSc1ccccc1C(=O)Nc1nc2ccccc2c(=O)[nH]1`, the Potency was inconclusive [activator, full curve]. With `COc1ccc(NC(=S)NCCc2c(C)[nH]c3ccc(OC)cc23)cc1` the Potency was inconclusive [inhibitor, single point]. In the case of `COc1ccc(C2=COc3ccccc3C(=O)N2)cc1`, the Potency is reported as inconclusive [activator, partial curve, poor fit].
